PubChem BioAssay (NCI)
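Protocol summary: plate cells (96-well), add compound at 5 concentrations, incubate 48 h, interpolate endpoints linearly. Definition used: TGI = concentration required for complete inhibition of growth.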 The source holds more than one record for some entries. This list holds those alone. An entry can have further records. A record mostly stands for its own series of concentrations, which the source does not state; a value can be the end of its range.

Assays:
Test in all cases: inhibition of tumour cell growth, NCI panel, 48 h
TK-10 renal = test system: TK-10 renal
UACC-257 melanoma = test system: UACC-257 melanoma
A498 renal = test system: A498 renal
NCI-H460 lung = test system: NCI-H460 lung
U251 CNS = test system: U251 CNS
RXF 393 renal = test system: RXF 393 renal
MDA-MB-231 breast = test system: MDA-MB-231 breast
MOLT-4 leukemia = test system: MOLT-4 leukemia
K-562 leukemia = test system: K-562 leukemia
OVCAR-5 ovarian = test system: OVCAR-5 ovarian
IGROV1 ovarian = test system: IGROV1 ovarian
NCI-H522 lung = test system: NCI-H522 lung
MDA-MB-435 = test system: MDA-MB-435
OVCAR-8 ovarian = test system: OVCAR-8 ovarian
HT29 colon = test system: HT29 colon
COLO 205 colon = test system: COLO 205 colon
MDA-N = test system: MDA-N
UACC-62 melanoma = test system: UACC-62 melanoma
RPMI-8226 leukemia = test system: RPMI-8226 leukemia
MCF7 breast = test system: MCF7 breast
SR leukemia = test system: SR leukemia
T-47D breast = test system: T-47D breast
NCI-H23 lung = test system: NCI-H23 lung
CAKI-1 renal = test system: CAKI-1 renal
786-0 renal = test system: 786-0 renal
SNB-19 CNS = test system: SNB-19 CNS
DU-145 prostate = test system: DU-145 prostate
SK-MEL-28 melanoma = test system: SK-MEL-28 melanoma
SK-MEL-2 melanoma = test system: SK-MEL-2 melanoma
OVCAR-3 ovarian = test system: OVCAR-3 ovarian
HOP-62 NSCLC = test system: HOP-62 NSCLC
A549 NSCLC = test system: A549 NSCLC
SW-620 colon = test system: SW-620 colon
LOX IMVI melanoma = test system: LOX IMVI melanoma
HS 578T breast = test system: HS 578T breast
SK-OV-3 ovarian = test system: SK-OV-3 ovarian
HCT-15 colon = test system: HCT-15 colon
SN12C renal = test system: SN12C renal
OVCAR-4 ovarian = test system: OVCAR-4 ovarian
HCC-2998 colon = test system: HCC-2998 colon
PC-3 prostate = test system: PC-3 prostate
KM12 colon = test system: KM12 colon
SK-MEL-5 melanoma = test system: SK-MEL-5 melanoma
HL-60(TB) leukemia = test system: HL-60(TB) leukemia
MALME-3M melanoma = test system: MALME-3M melanoma
SF-539 CNS = test system: SF-539 CNS
SF-268 CNS = test system: SF-268 CNS
M14 melanoma = test system: M14 melanoma
UO-31 renal = test system: UO-31 renal
BT-549 breast = test system: BT-549 breast
EKVX NSCLC = test system: EKVX NSCLC
ACHN renal = test system: ACHN renal

NC(N)=NS(=O)(=O)c1ccc(Nc2c3ccccc3nc3c(C(=O)NCCO)cccc23)cc1
TGI (TK-10 renal): 715 nM and 55.9 µM | TGI (UACC-257 melanoma): 569 nM and > 100 µM | TGI (A498 renal): 345 nM and 39.1 µM | TGI (NCI-H460 lung): 356 nM and 37.1 µM | TGI (U251 CNS): 744 nM and > 100 µM | TGI (RXF 393 renal): 369 nM and 43.6 µM | TGI (MDA-MB-231 breast): 533 nM and 64.9 µM | TGI (MOLT-4 leukemia): 513 nM and > 100 µM | TGI (K-562 leukemia): 584 nM and 98.6 µM | TGI (OVCAR-5 ovarian): 640 nM and 58.9 µM | TGI (IGROV1 ovarian): 422 nM and 47.7 µM | TGI (NCI-H522 lung): 306 nM and 33.9 µM | TGI (MDA-MB-435): 346 nM and 53.6 µM | TGI (OVCAR-8 ovarian): 540 nM and > 100 µM | TGI (HT29 colon): 347 nM and 80.4 µM | TGI (COLO 205 colon): 316 nM and > 100 µM | TGI (MDA-N): 801 nM and 49.5 µM | TGI (UACC-62 melanoma): 365 nM and 44.1 µM | TGI (RPMI-8226 leukemia): 500 nM and 59.7 µM | TGI (MCF7 breast): 137 nM and 43.8 µM | TGI (SR leukemia): 576 nM and > 100 µM | TGI (T-47D breast): 458 nM and 45.7 µM | TGI (NCI-H23 lung): 332 nM and 80.3 µM | TGI (CAKI-1 renal): 511 nM and 53.4 µM | TGI (786-0 renal): 483 nM and > 100 µM | TGI (SNB-19 CNS): 703 nM and > 100 µM | TGI (DU-145 prostate): 705 nM and 48.1 µM | TGI (SK-MEL-28 melanoma): 565 nM and 42.6 µM | TGI (SK-MEL-2 melanoma): 355 nM and 46.1 µM | TGI (OVCAR-3 ovarian): 382 nM and 44.4 µM | TGI (HOP-62 NSCLC): 433 nM and 61.7 µM | TGI (A549 NSCLC): 421 nM and 54.3 µM | TGI (SW-620 colon): 507 nM and 60.1 µM | TGI (LOX IMVI melanoma): 273 nM and > 100 µM | TGI (HS 578T breast): 530 nM and 85.1 µM | TGI (SK-OV-3 ovarian): 801 nM and > 100 µM | TGI (HCT-15 colon): 697 nM and > 100 µM | TGI (SN12C renal): 683 nM and 86.7 µM | TGI (OVCAR-4 ovarian): 740 nM and 56.1 µM | TGI (HCC-2998 colon): 365 nM and 24.7 µM | TGI (PC-3 prostate): 693 nM and 56.3 µM | TGI (KM12 colon): 363 nM and 36.1 µM | TGI (SK-MEL-5 melanoma): 276 nM and 33.4 µM | TGI (HL-60(TB) leukemia): 749 nM and 47.9 µM | TGI (MALME-3M melanoma): 293 nM and 33.7 µM | TGI (SF-539 CNS): 429 nM and 85.1 µM | TGI (SF-268 CNS): 381 nM and 39 µM | TGI (M14 melanoma): 419 nM and 64.1 µM | TGI (UO-31 renal): 473 nM and 57.2 µM | TGI (BT-549 breast): 290 nM and > 100 µM | TGI (EKVX NSCLC): 834 nM and 68.9 µM | TGI (ACHN renal): 719 nM and > 100 µM
